Measurements from PubChem BioAssay AID488969 (Vanderbilt High Throughput Screening Facility, 2010).
The full ranking holds about 110,000 compounds; the median of “z-score” is about -0.1, and the highest 2% start at about 2. The list shows a part of the results.

Each compound was assayed against Metabotropic glutamate receptor 8 (Rattus norvegicus) (UniProt P70579) (assay: mGluR8 Gi/Go-coupled signaling modulation – cell-based, rat, thallium flux, HTS, primary screen (AID 488969)). Conditions: HEK293 rat mGluR8, GIRK (G protein-gated inwardly rectifying potassium channel) thallium flux, FluoZin2; at 10 µM; stronger effect = higher value; submaximal glutamate (EC20) added with thallium.
UniProt P70579, sequence (P70579 whole entry, looked up): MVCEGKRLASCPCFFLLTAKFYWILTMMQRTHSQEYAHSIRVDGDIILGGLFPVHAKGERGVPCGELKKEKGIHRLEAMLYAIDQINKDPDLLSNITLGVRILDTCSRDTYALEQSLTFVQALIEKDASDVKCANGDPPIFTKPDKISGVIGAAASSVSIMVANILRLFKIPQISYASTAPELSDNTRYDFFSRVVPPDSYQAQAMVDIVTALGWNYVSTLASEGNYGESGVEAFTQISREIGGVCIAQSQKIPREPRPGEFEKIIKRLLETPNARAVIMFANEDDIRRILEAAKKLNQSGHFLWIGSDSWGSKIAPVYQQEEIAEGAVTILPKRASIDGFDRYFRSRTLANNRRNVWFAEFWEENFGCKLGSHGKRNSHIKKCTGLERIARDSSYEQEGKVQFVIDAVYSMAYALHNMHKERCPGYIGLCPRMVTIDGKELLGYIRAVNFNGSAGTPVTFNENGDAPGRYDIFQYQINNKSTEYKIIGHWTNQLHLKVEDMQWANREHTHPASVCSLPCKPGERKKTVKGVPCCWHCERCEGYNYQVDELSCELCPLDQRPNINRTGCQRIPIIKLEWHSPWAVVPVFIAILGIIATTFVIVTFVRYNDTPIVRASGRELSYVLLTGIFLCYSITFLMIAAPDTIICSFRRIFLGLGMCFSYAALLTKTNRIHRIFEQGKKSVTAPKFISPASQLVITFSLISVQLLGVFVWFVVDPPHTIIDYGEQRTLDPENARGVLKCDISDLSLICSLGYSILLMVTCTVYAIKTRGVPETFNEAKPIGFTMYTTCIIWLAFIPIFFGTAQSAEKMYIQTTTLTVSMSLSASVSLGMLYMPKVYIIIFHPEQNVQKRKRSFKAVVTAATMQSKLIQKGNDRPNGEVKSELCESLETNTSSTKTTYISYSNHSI
O=[N+]([O-])c1ccc(N2CCC(=NOCc3ccc(Cl)cc3)CC2)cc1 gave a z-score of -0.125. CCCc1nnc(NC(=O)CCC(=O)NC2CCCc3ccccc32)s1 (stereo not drawn) gave a z-score of -0.05. O=C(NCCc1ccccc1)c1cc(-c2ccco2)on1 showed a z-score of 0.278. CN(C)S(=O)(=O)c1cccc(NC(=O)CSc2nc3c(cc2C#N)C(=O)CC(C)(C)C3)c1 was tested, and the z-score was -1.13. With O=C(/C(=C/c1ccccc1)n1cncn1)c1ccc(Cl)cc1Cl the z-score was -0.55. CCCOc1ccc(C(=O)Nc2ccc(N3CCN(C(C)=O)CC3)cc2)cc1 gave a z-score of 9.14e-05. Work on CCN(CC)c1nc2ccccc2nc1C(C#N)C(=O)NCCc1ccccc1 (stereo not drawn) yielded a z-score of -0.622. For COC(=O)COc1ccc(C(=O)OC)cc1, the z-score was -0.12. Fc1ccc(N2CCN(c3nc(-c4ccco4)cc(C(F)(F)F)n3)CC2)cc1 showed a z-score of 0.981. Compound O=C(CSc1nnc(-c2ccc(OC(F)F)cc2)o1)NCc1cccs1 has a z-score of -0.106. With CC1CCCCN1S(=O)(=O)c1ccc(C(=O)Nc2sccc2C(N)=O)cc1 (stereo not drawn) the z-score was 0.983. O=C(NC(=S)Nc1ccc(N2CCOCC2)cc1)c1ccc2c(c1)OCCO2 gave a z-score of 0.0862. Compound Cc1ccc(NC(=O)CCNS(=O)(=O)c2ccc3c(c2)oc(=O)n3C)c(C)c1 has a z-score of 0.0598. For Cc1nn(CCC(N)=S)c2nc(-c3cccs3)cc(C(F)(F)F)c12, the z-score was -0.0243. OCCCCCNc1ncnc2ccccc12 gave a z-score of 1.01. CCCCC(O)CN1CCC(c2ccccc2)CC1 (stereo not drawn) gave a z-score of 0.558. CCOC(=O)c1c(C)[nH]c(NC(=O)Nc2c(C)n(C)n(-c3ccccc3)c2=O)c1C gave a z-score of -0.462. With COc1ccccc1C/C(N)=N/OC(=O)COc1cccc2ccccc12 the z-score was 0.0266. Work on Cc1c(NC(=O)c2ccccc2NS(=O)(=O)c2ccc(Br)cc2)c(=O)n(-c2ccccc2)n1C yielded a z-score of -0.446. Work on Clc1ccc(CNc2nc(CN3CCOCC3)nc3scc(-c4ccccc4)c23)cc1 yielded a z-score of -0.101. CCCC(=O)NC(=S)Nc1cccc(Cl)c1N1CCCCC1 was tested, and the z-score was 0.12. CCCCCCOc1ccc(N2C(=O)CC(NCCc3ccc(S(N)(=O)=O)cc3)C2=O)cc1 (stereo not drawn) gave a z-score of -0.234. CN(C)CCCNC(=O)COc1ccc(Br)cc1Cl showed a z-score of 0.032. CC(C)C(=O)NC(NC(=S)NC1CCS(=O)(=O)C1)C(Cl)(Cl)Cl (stereo not drawn) showed a z-score of -0.184. With CCc1sc(N(C(=O)Cc2ccccc2)c2cccc(F)c2)nc1-c1ccc(C)cc1 the z-score was 0.121. Cc1nn(-c2ccccc2)c(C)c1/C=C/C(=O)OCC(=O)Nc1ncc(C(F)(F)F)cc1Cl gave a z-score of -0.39. CCOc1ccc(NC(=O)c2nn(C)cc2Br)cc1 showed a z-score of -1.14. COCc1cc(C)c(C#N)c(=S)[nH]1 was tested, and the z-score was -0.0079. Work on Cn1c(=O)c2c(nc(NCc3ccccc3)n2Cc2ccc(F)cc2)n(C)c1=O yielded a z-score of -0.185. Work on COc1cccc(C(=O)N(CN2CCCC2=O)c2cc(C)on2)c1 yielded a z-score of -0.254. In the case of O=S(=O)(NCC(Nc1ccc(Cl)cc1)c1ccccc1)c1ccc(Cl)cc1 (stereo not drawn), the z-score is reported as -0.0372. For O=C1c2cccnc2C(=O)N1C1CCCCC1, the z-score was -0.115. In the case of COC(=O)c1ccccc1C(=O)N1CCOCCOCCOCC1, the z-score is reported as -0.0749. Compound CC(c1nnc(SCC(=O)N2CC(=O)Nc3ccccc32)n1Cc1ccccc1)N(C)C (stereo not drawn) has a z-score of -0.35. Work on Cc1ccc(NC(=O)C2C(c3ccccc3)C=CC(c3ccccc3)C2C(=O)O)cc1 (stereo not drawn) yielded a z-score of -0.143. With O=C(NC1CCCC1)C1=COCCO1 the z-score was -0.000192. OCCNc1ccc(Cl)cc1 showed a z-score of -0.583. Compound COc1cc(/C=N/NC(=S)NCCN2CCOCC2)cc(OC)c1OC has a z-score of -0.0565. For O=C(OCc1c(Cl)cccc1Cl)c1ccccn1, the z-score was -0.233. Work on O=[N+]([O-])c1ccc(-n2nncc2-c2ccc(Cl)cc2)cc1 yielded a z-score of -0.281. COc1ccc(CNC(=O)CCOc2ccc(C(C)(C)C)cc2)cc1 gave a z-score of -0.421. COc1cccc(C2CC(c3cccs3)=NN2C(=S)Nc2ccccc2)c1OC (stereo not drawn) gave a z-score of -0.169. In the case of Cc1ccc2c(c1C)OC(=O)CC2(C)C, the z-score is reported as -0.276. O=C(NCC1(c2ccccc2)CCCC1)C(=O)NCC1(c2ccccc2)CCCC1 showed a z-score of 0.528. Work on COc1ccc(/C=C/c2ccncc2)cc1OC yielded a z-score of 0.105. With Cn1c(C(=O)OCC(=O)NCCc2ccccc2)cc2sccc21 the z-score was -0.189. Cc1cccc(C)c1N1CCN(c2nc(N(C)C)oc(=O)c2C#N)CC1 showed a z-score of -0.114. In the case of Clc1ccc(CSc2snnc2-c2ccccc2)c(Cl)c1, the z-score is reported as -0.113. COCCNC(=O)CSc1nc(-c2ccccc2)cs1 gave a z-score of 0.0459. CCc1ccc(NC(=O)CCNS(=O)(=O)c2cccc3nsnc23)cc1 gave a z-score of 0.211. With Cc1ccc(CSc2nn3c(=O)c(C)nnc3s2)cc1 the z-score was 1.08. With O=C(O)C1C2C=CC(C2)C1C(=O)NCc1cccnc1 (stereo not drawn) the z-score was 0.0718. Cc1nc(SCC(=O)N2CCC(C(N)=O)CC2)n[nH]1 was tested, and the z-score was -0.029. Cc1nc(SCC(O)CO)c([N+](=O)[O-])[nH]1 (stereo not drawn) gave a z-score of -0.286. COc1cccc(-c2nc(S(=O)(=O)c3ccccc3)c(N3CCOCC3)o2)c1 was tested, and the z-score was -0.303. Compound Cc1ccc(C2CC(=O)C=C(Nc3ccc(Cl)cc3)C2)cc1 (stereo not drawn) has a z-score of -0.187. In the case of O=C(Cn1cc(C(=O)COc2ccccc2)c2ccccc21)NCc1ccco1, the z-score is reported as 0.275. Compound S=C(Nc1cccnc1)NC1CCCCCCC1 has a z-score of 1.18. Cc1ccccc1C(=O)NC(=S)NC1CCSC1=O (stereo not drawn) showed a z-score of -0.0558. Work on COc1ccc(/C=C/C(=O)NCCc2ccc(OC)c(OC)c2)cc1 yielded a z-score of -0.158. In the case of O=C1c2ccccc2C(=O)N1CCCCN1CCN(CCCCN2C(=O)c3ccccc3C2=O)CC1, the z-score is reported as 0.421. For O=C(NCc1ccncc1)C(F)(F)C(F)(F)C(=O)NCc1ccncc1, the z-score was 0.181. Compound COc1ccc(-c2nn(-c3ccccc3)cc2/C=N/N=C(N)N)cc1OC has a z-score of 0.464. For CCOc1ccccc1C(=O)NC1CC2CCCC(C1)N2Cc1ccccc1 (stereo not drawn), the z-score was 0.651. COc1ccc(C(=O)CSc2nnc(NC(=O)C3CC(=O)N(c4cccc(OC)c4)C3)s2)cc1 (stereo not drawn) showed a z-score of -0.294. With CC1(C)CC(=O)C2=C(C1)Nc1cc(C(=O)c3ccccc3)ccc1NC2c1ccccn1 (stereo not drawn) the z-score was -0.364. For COC(=O)c1cccc(NC(=O)Cn2cnc3ccccc3c2=O)c1, the z-score was -1.57. With Cc1ccc(C(=O)N/N=C\c2c(C)nn(-c3ccccc3)c2Cl)cn1 the z-score was -0.275. Work on CCN1CCN(C(=O)C2c3cc(OC)c(OC)cc3C(=O)N(C)C2c2ccc(SC)cc2)CC1 (stereo not drawn) yielded a z-score of 0.574. With CC(C)CC(=O)Nc1ccccc1N1CCCC1 the z-score was -0.276. With CC1=C(C(=O)Nc2cc(C)ccn2)C(c2ccc(C)cc2)C2=C(CCCC2=O)N1 (stereo not drawn) the z-score was -0.368. O=C(O)CC(NC(=O)c1ccccc1NC(=O)c1ccccc1)C(=O)O (stereo not drawn) gave a z-score of 0.2. Cc1nnsc1SCCNC(=O)c1c(F)cccc1F was tested, and the z-score was -0.0414. C=CCn1c(Cc2cccs2)nnc1SCC(=O)Nc1cccc(OC)c1 gave a z-score of -0.528. With Cc1ccccc1NC(=O)CN1C(=O)NC2(CCCCC2)C1=O the z-score was 0.0629. For CCOc1ccccc1C1CC(=O)Nc2c1c(=O)n(C)c(=O)n2C (stereo not drawn), the z-score was -0.336. For CCOC(=O)c1cc(NC(=O)c2ccccc2)c(=O)oc1-c1ccccc1, the z-score was -0.0159. For COc1ccc(Cc2nn3c(-c4cc(OC)c(OC)c(OC)c4)nnc3s2)cc1, the z-score was -2.53. Work on Cc1cc(C)cc(OCC(=O)NCc2nc(-c3ccccc3)no2)c1 yielded a z-score of 0.525. Work on O=C(COc1ccc(/C=N/NC(=O)c2cc3ccccc3o2)cc1Br)Nc1ccccc1 yielded a z-score of -0.177. With CCN(CC)S(=O)(=O)c1ccc(NC2=NS(=O)(=O)c3ccccc32)cc1 the z-score was 0.268. In the case of CC(NC(=O)Cn1c(NCCO)nc2ccccc21)c1ccccc1 (stereo not drawn), the z-score is reported as -0.197. N#Cc1c(N)n(CCOC(=O)c2cccc(Br)c2)c2nc3ccccc3nc12 was tested, and the z-score was 0.459. In the case of Cc1cc2ccccc2c(=O)n1CC(=O)NCC(=O)N1CCN(c2ccccc2)CC1, the z-score is reported as 0.244. Work on O=C(/C=C/c1c(F)cccc1Cl)Nc1nc2ccccc2[nH]1 yielded a z-score of -0.116. Compound Cc1ccc(/C=N/n2nnnc2N)cc1[N+](=O)[O-] has a z-score of 0.159. CC1(C(=O)NC(=S)N(CCC#N)c2ccccc2)CC1(Cl)Cl (stereo not drawn) gave a z-score of -0.0527. For CC(C)OCC(O)Cn1c(N2CCCC2)nc2c1c(=O)[nH]c(=O)n2C (stereo not drawn), the z-score was 0.265. O=C(NCC1CCCO1)c1ccccc1-c1nc(-c2ccc(Cl)cc2)no1 (stereo not drawn) gave a z-score of -0.557. CCCCn1nnc(NC(=S)NC(=O)c2cccs2)n1 showed a z-score of 0.0688. Compound CCOC(=O)N1CCN(c2c(NCc3ccc(Cl)cc3)c(=O)c2=O)CC1 has a z-score of -1.06. With CC1CC(C)CN(CCCNC(=O)CCNC(=O)Cn2ccc3ccccc3c2=O)C1 (stereo not drawn) the z-score was -1.48. Work on CCOC(Cn1c(SCc2cc(C(C)=O)ccc2OC)nc2ccccc2c1=O)OCC yielded a z-score of 0.261. With O=C(Nc1nc2ccccc2n1Cc1ccccc1)c1ccco1 the z-score was 1.7. Work on CC1CCN(c2nnc(N)s2)CC1 yielded a z-score of 0.28. In the case of CCCn1c(C)cc(-c2csc(N)n2)c1C, the z-score is reported as 0.0373. CCOc1ccccc1NS(=O)(=O)N(C)C gave a z-score of 0.286. COC(=O)c1onc(-c2ccccc2)c1C(=O)OC gave a z-score of -0.285. Compound CN(C)S(=O)(=O)c1ccc(C(=O)N2CCC(c3nc4ccccc4o3)CC2)cc1 has a z-score of -0.222. CC(C)CC(=O)NC(=S)Nc1ccc(Cl)cn1 showed a z-score of 2.96. With COc1ccc(-c2csc(NC(=O)CN3C(=O)CCC3=O)n2)cc1OC the z-score was -0.147. With Cc1ccc(Nc2nc(Oc3ccc(OCc4ccccc4)nn3)nc(N3CCOCC3)n2)cc1 the z-score was -0.293. CC(C(=O)N1CCc2ccccc21)n1cccc1 (stereo not drawn) was tested, and the z-score was -0.0362. With C/C(=N\N=C\c1ccccc1F)c1nnn(-c2nonc2N)c1C the z-score was -0.168. In the case of Cc1nc2ccc(NC(=O)N(C(C)C)C(C)C)cc2s1, the z-score is reported as -0.168. With O=C(Nc1c(C(=O)N2CCCC2)cnn1-c1ccccc1)c1cccc(F)c1 the z-score was 0.436. Cc1ccc(-n2nc3c(=S)[nH]nc(C)c3c2C)cc1 showed a z-score of -0.105. Compound CCOc1ccc(S(=O)(=O)NCc2ccncc2)cc1 has a z-score of 0.258. Cc1csc(NC(=O)C2C3C=CC(O3)C2C(=O)O)n1 (stereo not drawn) was tested, and the z-score was -0.371. In the case of COC(=O)c1ccc(NC(=O)CN2C(=O)CSC2=O)cc1, the z-score is reported as 0.132. Cc1nc2ccccn2c1P(=O)(N1CCCCC1)N1CCCCC1 was tested, and the z-score was 0.254. In the case of O=C(COc1ccc(S(=O)(=O)NC2CCCCC2)cc1)N1CCN(c2ccc(F)cc2)CC1, the z-score is reported as -0.287. For FC(F)(F)c1ccc(Oc2ccc3ccccc3c2Br)nc1, the z-score was -0.14.
